# Data taken from PubChem BioAssay AID720709 (National Center for Advancing Translational Sciences (NCATS), 2013).
# Among all 360,000 compounds or so, about 520 (0.14%) were called active. This list was built around the results that the source calls inconclusive (neither active nor inactive); the mix of calls is not that of the screen. Calls follow the shape of the dose curve; as a rule, active = well fitted inhibition curve with a large enough effect; inconclusive = small, poorly fitted or top-dose-only effect; inactive = no such curve, though single readings can be large or run the other way. Potencies of inconclusive entries are left out as doubtful fits.
# Biological target: Rap guanine nucleotide exchange factor 3 (Homo sapiens) (UniProt O95398)
# Sequence of UniProt O95398 (O95398 whole entry, looked up): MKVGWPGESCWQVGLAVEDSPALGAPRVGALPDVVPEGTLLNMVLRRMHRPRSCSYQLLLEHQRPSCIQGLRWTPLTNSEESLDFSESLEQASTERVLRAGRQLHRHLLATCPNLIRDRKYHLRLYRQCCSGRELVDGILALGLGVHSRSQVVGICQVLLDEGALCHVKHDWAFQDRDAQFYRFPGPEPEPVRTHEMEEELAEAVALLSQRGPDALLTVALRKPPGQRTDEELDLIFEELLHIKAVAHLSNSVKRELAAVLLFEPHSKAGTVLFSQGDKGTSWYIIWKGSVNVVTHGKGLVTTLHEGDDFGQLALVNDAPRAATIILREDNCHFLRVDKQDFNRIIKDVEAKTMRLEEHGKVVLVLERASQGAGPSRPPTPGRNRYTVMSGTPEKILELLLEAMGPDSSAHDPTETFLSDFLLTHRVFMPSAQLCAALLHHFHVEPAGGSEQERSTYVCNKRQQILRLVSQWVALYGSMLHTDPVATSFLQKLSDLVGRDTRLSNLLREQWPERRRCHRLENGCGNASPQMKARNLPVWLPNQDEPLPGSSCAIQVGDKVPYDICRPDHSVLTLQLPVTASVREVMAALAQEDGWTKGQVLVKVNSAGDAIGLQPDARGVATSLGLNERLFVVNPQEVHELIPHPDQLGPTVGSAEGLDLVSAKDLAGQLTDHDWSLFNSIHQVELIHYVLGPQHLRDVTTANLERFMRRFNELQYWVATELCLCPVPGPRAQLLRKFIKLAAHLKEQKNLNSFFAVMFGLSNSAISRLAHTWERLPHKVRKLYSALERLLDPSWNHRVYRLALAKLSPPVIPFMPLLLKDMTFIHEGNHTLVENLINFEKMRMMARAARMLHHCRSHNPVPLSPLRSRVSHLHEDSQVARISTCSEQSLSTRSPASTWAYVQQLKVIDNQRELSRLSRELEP
# Experiment: qHTS for Antagonist of cAMP-regulated guanine nucleotide exchange factor 3 (EPAC1): primary screen; also: nearly all actives have a fitted effect of over 50% in size;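 as to activity change, negative = inhibition: plate controls were vehicle for no effect and positive control for full effect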
# Conditions: EPAC1 GEF assay, Rap1b-BODIPY-GDP exchange fluorescence; activity change, negative = inhibition: at 115 µM (top of the series)
# Potency is read from the fitted curve at half-maximal effect; tags tell the direction and shape of the fitted curve.
SMILES,Potency,"activity change, negative = inhibition"
N=c1oc2cc(O)ccc2cc1C(=O)Nc1ccc(Br)cc1,"inconclusive [inhibitor, full curve, poor fit]",–
CCOC(=O)C1CCN(C(c2cccnc2)c2c(NC(=O)c3ccco3)sc(C)c2C)CC1 (configuration not stated),"inconclusive [inhibitor, full curve, poor fit]",–
O=[N+]([O-])c1ccc(N/N=C2/CCCCC2c2ccccn2)cc1 (configuration not stated),"inconclusive [inhibitor, single point]",–
Cc1cccc(Nc2c([N+](=O)[O-])c(=O)oc3ccccc23)c1,"inconclusive [inhibitor, single point]",–
COc1cccc(C(=O)NC(=S)N2c3ccccc3CC2C)c1OC (configuration not stated),"inconclusive [inhibitor, single point]",–
Cc1ccc(-c2nc(N3CCOCC3)sc2C(=O)N2CCOCC2)cc1,"inconclusive [inhibitor, partial curve, poor fit]",–
S=C(NNC(=S)Nc1ccccc1)Nc1ccccc1,inactive,–
CC(C)C[C@H](NC(=O)c1nc[nH]c1C(=O)N[C@@H](CC(C)C)C(=O)OC(C)(C)C)C(=O)OC(C)(C)C,"inconclusive [inhibitor, full curve]",–
COc1ccc(/C=N/Nc2nnc(C)n2N)cc1OC(C)=O,"inconclusive [inhibitor, partial curve, poor fit]",–
O=C(COn1nnc2ccc(C(F)(F)F)cc21)Nc1c(Cl)cccc1Cl,"inconclusive [inhibitor, single point]",–
CCCOc1ccc(C(=O)OCC(=O)c2c(N)n(C)c(=O)n(C)c2=O)cc1OCC,"inconclusive [inhibitor, single point]",–
Nc1ccccc1C(=O)NNc1c2ccccc2nc2ccccc12,"inconclusive [inhibitor, partial curve]",–
N#Cc1c(NC(=O)CSc2ncnc3sccc23)oc(-c2ccco2)c1-c1ccco1,"inconclusive [inhibitor, single point]",–
COc1ccc(CNC(=O)C2CC(c3ccc(OC)cc3)=NO2)cc1 (configuration not stated),inactive,–
CC(=O)c1sc(NC(=O)c2c(F)cccc2F)nc1-c1ccccc1,inactive,–
O=C1Nc2ccccc2C1=Nc1cccc([N+](=O)[O-])c1,inactive,–
O=C(CSc1ccc2ccccc2n1)N/N=C/c1ccccc1O,"inconclusive [inhibitor, partial curve]",–
O=C(CCN1C(=O)/C(=C\c2ccco2)SC1=S)Nc1ccc(C(=O)O)c(O)c1,"inconclusive [inhibitor, partial curve, poor fit]",–
COc1ccccc1NS(=O)(=O)c1ccc2ccccc2c1,inactive,–
C=C1CCN(C(Cc2ccccc2)C(=O)OC)S(=O)(=O)c2ccc(F)cc21 (configuration not stated),inactive,–
C/C(=N\Nc1ccc(Cl)c(C(=O)O)c1)c1cc2ccccc2o1,"inconclusive [inhibitor, single point]",–
COc1ccc(Nc2c3c(nc4ccccc24)CCC3)cc1,"inconclusive [inhibitor, partial curve, poor fit]",–
Cc1ccc2c(c1)C(=O)N(CCCCO)C2=O,"inconclusive [inhibitor, single point]",–

SMILES,Potency,"activity change, negative = inhibition"
CCOc1ccc(Cn2nnc(C(=O)Nc3ccc(OC)cc3OC)c2N)cc1,"inconclusive [inhibitor, full curve, poor fit]",–
Cc1cccc(C(=O)NC(=O)Nc2c(C)cc(C)nc2C)c1,"inconclusive [inhibitor, single point]",–
O=C(CCSc1ccccn1)Nc1ccc(Br)cc1,"inconclusive [inhibitor, partial curve, poor fit]",–
CN(C)S(=O)(=O)c1cc(C(=O)OCCn2cnc3c2c(=O)n(C)c(=O)n3C)ccc1Cl,"inconclusive [inhibitor, full curve, poor fit]",–
COc1ccc(CCNC(=O)CSC2=NS(=O)(=O)c3cc(Cl)ccc3N2)cc1OC,"inconclusive [inhibitor, single point]",–
Cc1ccc2[nH]c(=O)c3cc(C(=O)N(CCCOC(C)C)Cc4ccco4)sc3c2c1,"inconclusive [inhibitor, partial curve]",–
CCOc1ccc(C2C3=C(CCCC3=O)Nc3ccc4ncccc4c32)cc1 (configuration not stated),"inconclusive [inhibitor, full curve]",–
CCCCc1cc(=O)oc2c(C)c(OCC(=O)NCC3CCC(C(=O)O)CC3)ccc12 (configuration not stated),"inconclusive [inhibitor, single point]",–
Oc1ccc(/C=N/NC(=S)Nc2cccnc2)c(O)c1O,"inconclusive [inhibitor, full curve]",–
Cc1ccc(C(=O)Cc2cc3ccccc3oc2=O)c(C)c1,inactive,–
O=C(CC1(O)C(=O)Nc2ccc(Br)cc21)c1ccccc1 (configuration not stated),"inconclusive [inhibitor, single point]",–
CCOC(=O)c1c(C)nc2c(c1-c1ccccc1)C(=O)CCC2,"inconclusive [inhibitor, partial curve]",–
COc1cccc(NC(=O)CN(C)CC(=O)Nc2ccc(Cl)cc2[N+](=O)[O-])c1,"inconclusive [inhibitor, single point]",–
CC(=O)O[C@]1(C(C)=O)CC[C@H]2[C@@H]3C=C(C)C4=CC(=O)CC[C@@H]4[C@H]3CC[C@@]21C,inactive,–
COc1ccc(-c2ccc(C(c3c(C)[nH][nH]c3=O)c3c(C)[nH][nH]c3=O)o2)c([N+](=O)[O-])c1,inactive,–
COC(=O)CN1C(=S)N(c2ccc(Cl)cc2)C(=O)C1CC(=O)Nc1ccc(F)cc1 (configuration not stated),"inconclusive [inhibitor, partial curve]",–
CCOP(=O)(OCC)C(Nc1cccc([N+](=O)[O-])c1)c1ccc(N(C)C)cc1 (configuration not stated),"inconclusive [inhibitor, single point]",–
Cc1oc2cc(Br)c(O)c(Br)c2c1-c1ccccc1,"inconclusive [inhibitor, full curve, poor fit]",–
COc1ccc(C2/C(=C(\O)c3ccc4c(c3)CC(C)O4)C(=O)C(=O)N2Cc2cccnc2)c(OC)c1 (configuration not stated),inactive,–
C=CCNc1nc2cc(-c3cccc(NC(C)=O)c3)sc2c(=O)n1C,inactive,–
C=CCc1cc(OC)ccc1OCC(O)CN1CCN(c2ccc(OC)cc2)CC1 (configuration not stated),inactive,–
CCOC(=O)Cc1nnc(NC(=O)CSc2nnc3c(n2)[nH]c2ccccc23)s1,"inconclusive [inhibitor, single point]",–
N#Cc1c(-c2cccs2)nc(SCc2ccc(Cl)cc2)[nH]c1=O,active: 89.1 µM,–

SMILES,Potency,"activity change, negative = inhibition"
Cn1ncc2c1NC(c1ccc(F)cc1)SCC2=O (configuration not stated),inactive,–
CS(=O)(=O)Oc1ccc2c(c1)O/C(=C\C=C\c1ccccc1)C2=O,inactive,–
COc1ccc(NC(=O)CSc2nc3nc(C)cc(C)c3c(=O)[nH]2)cc1,"inconclusive [inhibitor, partial curve]",–
Cc1cccc(NC(=O)C2CCCN(S(=O)(=O)c3cccc4cccnc34)C2)c1 (configuration not stated),"inconclusive [inhibitor, full curve]",–
O=C1S/C(=C\c2cccs2)C(=O)N1c1ccc(O)cc1,inactive,–
O=C(NCc1ccc2c(c1)OCO2)C(=O)NCC1OCCCN1S(=O)(=O)c1ccccc1 (configuration not stated),inactive,–
COc1ccc2[nH]c3c(=O)n(CCCCC(=O)NCCC(C)C)c(=S)[nH]c3c2c1,"inconclusive [inhibitor, single point]",–
CCN1/C(=C/c2ccc3cc(C)ccc3[n+]2CC)Sc2cc(C)c(C)cc21,–,inconclusive: -30.1% [inhibitor]
COc1ccc2nc(N3C(=O)C(O)=C(C(=O)c4ccco4)C3c3ccc(C)o3)sc2c1 (configuration not stated),"inconclusive [inhibitor, partial curve]",–
CN(C)c1ccc(N=Nc2ccccc2C(=O)OCC(=O)NCC2CCCCC2)cc1,"inconclusive [inhibitor, partial curve]",–
CN(C)S(=O)(=O)c1ccccc1N=C=S,"inconclusive [inhibitor, full curve, poor fit]",–
N#Cc1ccc(NC(=O)C2=COCCO2)cc1,"inconclusive [inhibitor, full curve, poor fit]",–
COC(=O)CNC(=O)C1CCN(C(=O)OCc2ccccc2)CC1,inactive,–
Cc1cc(Sc2nnc(N)s2)c2ccccc2n1,"inconclusive [inhibitor, single point]",–
CC(C)c1c(Cl)c(O)c(-c2ccccc2)c(=O)n1-c1ccc(F)cc1,"inconclusive [inhibitor, single point]",–
CN1CCN(C2Cc3ccc(Cl)cc3Sc3ccc(F)cc32)CC1 (configuration not stated),"inconclusive [inhibitor, full curve, poor fit]",–
N#CC1=C(N)Oc2cc(O)ccc2C1c1ccncc1 (configuration not stated),"inconclusive [inhibitor, partial curve]",–
Cc1nc(N)sc1-c1csc(Nc2ncccn2)n1,inactive,–
COC(=O)c1ccc(COc2ccc(/C=C(\C#N)c3nc4ccccc4[nH]3)cc2OC)o1,"inconclusive [inhibitor, partial curve, poor fit]",–
Cc1cc(SCC(=O)Nc2cccc(S(=O)(=O)NC3=NCCCCC3)c2)c(C)cc1Br,"inconclusive [inhibitor, full curve, poor fit]",–
COc1cc(C(=O)NCC(c2ccco2)N2CCCC2)ccc1OCc1ccc(Cl)cc1Cl (configuration not stated),"inconclusive [inhibitor, single point]",–
